The record followed here is PubChem BioAssay (NCI).

Values joined by “and” are separate entries in the source; they are usually repeats but may differ in a detail not shown here. Equal values may be shown once.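 The compound was tested at five concentrations on cells cultured in 96-well plates, with a 48-hour exposure period. GI50: concentration for 50% inhibition of growth. Definition used: TGI = concentration required for complete inhibition of growth.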 Peptide text beside a SMILES is read from it.

This experiment relates to NCI-H322M lung. Kind of experiment: NCI anticancer screen, dose series, 48 h.
For `O=c1oc2ccccc2c(O)c1C(C/C(CCN1CCCC1)=N/O)c1ccccc1` (stereo not given), the TGI was more than 100 µM.

With `CC/C=C/c1cc2c(c3[nH]ccc13)[C@@H](C)CC2C` (stereo not given in full) (tested in a mixture with another compound), the TGI is 32.2 µM.

In turn, `O=C(O)CCC(=O)N1C/C(=C\c2ccccc2)C(=O)/C(=C/c2ccccc2)C1` gave a TGI of 21.1 µM.

Molecule `CC(=O)OC(OC(C)=O)c1ncccc1C(=O)OC(C)C` registered a TGI of more than 100 µM.

Turning to `O=C1c2ccccc2C(=O)c2c1ccc(O)c2O`, the TGI was more than 100 µM.

Regarding `Cc1cc2nn(C3CCCO3)nc2cc1C` (stereo not given), the TGI was more than 100 µM.

Molecule `O=c1oc2ccccc2c(O)c1/C=N\c1nc(-c2ccc(O)c(O)c2)cs1` showed a TGI of 26.7 µM.

As to `O=C(Cc1ccc(OCc2ccccc2)cc1)NCc1ccc2c(c1)OCO2`, the GI50 was more than 100 µM and the TGI was more than 100 µM.

Regarding `COc1ccc(NC=O)c(C(=O)CCNC(C)=O)c1`, the TGI was more than 100 µM.

For the molecule `NC(Cc1cnc(I)[nH]1)C(=O)O` (stereo not given), the TGI was more than 100 µM.

As to `CC(C)CC(=O)[O-].CC(C)CC(=O)[O-].N.N.N.N.[Co+3].[O-][Cl+3]([O-])([O-])O.[O-][Cl+3]([O-])([O-])[O-]`, the GI50 was more than 100 µM and the TGI is more than 100 µM.

`CC(C)CC(=O)[O-].N.N.N.N.N.[Co+3].[O-][Cl+3]([O-])([O-])[O-]`: the GI50 was more than 100 µM and the TGI was more than 100 µM.

For the molecule `NCC(O)CSP(=O)(O)O` (stereo not given), the TGI is more than 100 µM.

On to `COc1ccc(C=C2C(=O)NC(=S)NC2=O)c2ccccc12`, for which the TGI was more than 100 µM.

For `N=c1c2ccccc2nc2oc3ccccc3n12`, the TGI is 72.4 µM.

For `COC1OC(COC(=O)NCCCCC(=O)C(F)(F)C(F)(F)C(F)(F)C(F)(F)C(F)(F)C(F)(F)C(F)(F)F)C(O)C(O)C1O` (stereo not given), the TGI was 33 µM and 24.6 µM.

With `Cc1oc2nc[nH]c(=O)c2c1C(=O)/C=C/c1ccc(Br)cc1`, the GI50 is 2.39 µM and the TGI stood at 12 µM.

Take `CC(C)S(=O)(=O)ON1C(=O)c2ccc(N(C)C)cc2C1=O`: the TGI is more than 79.3 µM.

In turn, `COC(=O)C(C)(C)NC(=O)C(Cc1ccccc1)Nc1ncnc2c1ncn2-c1ccc(OC)cc1` (stereo not given) came in with a TGI of more than 100 µM.

Consider `NC(=O)c1ccc(NCC2=CC(=O)C=CC2=O)cc1`, for which the TGI is more than 100 µM.

For `CCc1cccc(C)c1NC(=O)CCc1nnc(SC)o1`, the TGI was more than 100 µM.

On to `c1ccc(-c2cn3nc(N4CCOCC4)sc3n2)cc1`, for which the TGI was more than 100 µM.

Take `NC(N)=NS(=O)(=O)c1ccc(NC(=O)c2cccc3cc4ccccc4nc23)cc1`: the TGI was more than 100 µM.

For the molecule `S=c1nc(COc2ccc(Cl)cc2)[nH][nH]1`, the TGI is more than 100 µM.

`CC12C=C[C@]3(CC[C@@H]4[C@@](C)(CO)CCC[C@]4(C)C3CC1)C2` (stereo not given in full) returned a TGI of more than 55.7 µM.

Turning to `N#Cc1c(N)c2c(c(-c3ccccc3)c1-c1ccccc1)C(=O)N(NC(=S)Nc1ccccc1)C2=O`, the TGI was more than 100 µM.

Consider `CC1(C)C2CCC(=O)C1C(OCc1ccccc1)C2` (stereo not given), for which the TGI is more than 100 µM.

For the molecule `COC(=O)CC(=O)OC`, the TGI is more than 100 µM.

On to `COc1ccc2[nH]c(=O)c(/C=C/C(=O)c3ccccc3OC)cc2c1`, for which the GI50 was 2.4 µM and the TGI was determined as 10.4 µM.

For `C=CCN=C1N=C(C)C(C(=O)OCC)S1` (stereo not given), the TGI was more than 100 µM.

In turn, `C/C(=C1/N=C(c2cc([N+](=O)[O-])ccc2Cl)N(c2ccc(Br)cc2)C1=O)c1cc2ccccc2oc1=O` showed a TGI of more than 100 µM.

As to `CNc1nc(N)cc(=O)[nH]1`, the TGI is more than 100 µM.

As for `COC(=O)[C@]12CC[C@@H](C(=O)/C=C/c3cccnc3)[C@@H]1[C@H]1CC[C@@H]3[C@@]4(C)C/C(=C/c5cccnc5)C(=O)C(C)(C)[C@@H]4CC[C@@]3(C)[C@]1(C)CC2`, the GI50 was 1.3 µM and the TGI is 2.62 µM.

On to `Nc1c(C(=O)c2cccc(-c3ccncc3)c2)cnn1-c1ccc(F)cc1`, for which the GI50 was more than 25 µM and the TGI is more than 25 µM.

For `O=c1ccc2[n+]([O-])c3ccc(O)cc3oc-2c1`, the TGI was more than 70.7 µM.

Turning to `Cc1cnc(NC2CCOCC2)nc1-n1cnc(C(=O)N[C@H](CN)c2cc(F)cc(Cl)c2)c1`, the GI50 is 0.139 µM and the TGI was determined as 42.4 µM.

For `S=C1Cc2cc3ccccc3nc2-c2ccccc2N1`, the TGI stood at 46.9 µM.

With `Oc1cc(Cn2cnc3c(Cl)nc(Cl)nc32)ccc1C12CC3CC(CC(C3)C1)C2`, the GI50 is 18.6 µM and the TGI stood at 38.4 µM.

As for `FC(F)(F)c1ccc(C2=N/S(c3ccccc3)=N\C(c3ccc(C(F)(F)F)cc3)=N/S(c3ccccc3)=N\2)cc1` (stereo not given), the TGI was more than 100 µM.

In turn, `COc1cccc(C=O)c1[O-].COc1cccc(C=O)c1[O-].[Cu+2]` showed a TGI of 31.8 µM.

Turning to `NC1(c2ccc(-c3nc4ccn5c(=O)[nH]nc5c4cc3-c3ccccc3)cc2)CCC1`, the GI50 was 8.17 µM and > 10 µM and 9.04 µM; the TGI was 23.2 µM and > 10 µM and 22.6 µM.

Consider `CN(CCCN(C)Cc1ccc(Cl)c(Cl)c1)CCN1CCCC1`, for which the TGI was determined as 44 µM.

In the case of `CNC[C@@H](NC(=O)c1ccc(-c2nc([C@H]3CC[C@H](O)[C@@H](F)C3)cnc2N)cc1F)c1cc(F)cc(Br)c1`, the GI50 is 17.8 µM and the TGI was 39.4 µM.

The molecule `OC(Cc1ccc2ccccc2n1)(C(F)(F)F)C(F)(F)F` showed a TGI of more than 10 µM.

As for `C#CCN(Cc1ccc2nc(-c3ccccc3)c(Cl)nc2c1)c1cc(OC)c(OC)c(OC)c1`, the TGI was more than 100 µM.

As for `COC(=O)CNC(=O)CCSc1nnc(COc2ccc(Cl)cc2)n1-c1ccccc1`, the TGI is 85 µM.

With `CC(C)=C[C@@H]1C[C@H](C)[C@H]2CC[C@H](C)c3c(O)c(OC4OCC(O)C(O)C4O)c(C)c1c32` (stereo not given in full), the GI50 was 13.3 µM and the TGI turned out to be 26.1 µM.

Regarding `Nc1cc2ccccc2c(O)c1O`, the GI50 was 15.7 µM and the TGI was determined as 30.1 µM.

In turn, `O=C1OC(CC(=O)c2ccc(Cl)cc2)C(Cl)=C1Cl` (stereo not given) registered a TGI of more than 100 µM.

Regarding `COC(=O)[C@]1(C)CCC[C@]2(C)[C@H]3CC[C@]4(C(C)C)OO[C@@H](O4)[C@]34O[C@@H]4C[C@H]21`, the TGI was more than 53 µM.

In turn, `NC(CCCNCc1ccccc1)C(=O)O` (stereo not given) came in with a TGI of more than 100 µM.

With `C=C(C)C12OC3(c4ccccc4)OC1C1C4OC4(CO)C(O)C4(O)C(=O)C(C)=CC4C1(O3)C(C)C2OC(=O)/C=C/C=C/c1ccccc1` (stereo not given), the TGI turned out to be 2.06 µM.

`COc1ccc(N2C(=O)C3c4[nH]c5c(C)cccc5c4C4CCC(c5ccccc5)CC4C3C2=O)cc1` (stereo not given) yielded a TGI of 89.7 µM.

Molecule `CC(C)(C)c1cc(COc2c3sc(=S)sc3c(OCc3cc(C(C)(C)C)cc(C(C)(C)C)c3)c3sc(=S)sc23)cc(C(C)(C)C)c1` returned a TGI of more than 100 µM.

Turning to `CC(=O)O[C@H]1[C@@H]2OC(=O)C3(CC3)C2C[C@H]2O[C@]2(C)CC/C=C(\C)CCC[C@@H]1C` (stereo not given in full), the GI50 was 27.3 µM and the TGI was found to be 91 µM.

Turning to `COC(=O)C12OCC34C(CC5C(C)=C(O)C(=O)CC5(C)C3C(O)C1O)OC(=O)C(OC(=O)C=C(C)C)C24` (stereo not given), the GI50 was 0.449 µM.

`CC1(C)OC(CCC#N)CN1C(=O)OCc1ccccc1` (stereo not given): the TGI is more than 100 µM.

Turning to `Cc1nc2c(nc1C)C(=O)C1=C(C2=O)C2C=CC1CC2`, the TGI turned out to be 31.3 µM.

With `Cc1ccc(-c2cc(-c3cc(-c4ccc(C)cc4C)n[nH]3)[nH]n2)c(C)c1`, the TGI was determined as 37.4 µM.

For `O=C(c1cccs1)c1c(C(F)(F)F)n([O-])c2ccc(Cl)cc2[n+]1=O`, the GI50 was 4.94 µM and the TGI was 11.5 µM.

Consider `CC(=O)c1cccc(NC(=O)C(=O)C(C(=O)NN)c2ccccc2)c1` (stereo not given), for which the TGI was more than 100 µM.

`O=c1[nH]c2c3ccncc3cc(-c3cccc(Cl)c3)c2c2cnccc12`: the GI50 was more than 100 µM and the TGI is more than 100 µM.

In the case of `Cc1c2cccc(Sc3ccccc3)c2c2c3c(cccc13)[S+](c1ccccc1)C2` (stereo not given), the TGI was 15.7 µM.

Turning to `N=C(N)c1ccc(-c2ccc(-c3cccs3)o2)cc1`, the GI50 is 2.08 µM and the TGI is 4.3 µM.

On to `O=C(C1CC1)N1CC[C@@H](Cc2n[nH]c(=O)n2-c2ccc(-c3ccc4occc4c3)cc2)C1`, for which the GI50 was 45 µM and the TGI was more than 100 µM.

Consider `NC1CC(=O)c2ccccc21` (stereo not given), for which the TGI is more than 100 µM.

For `Cc1ccc(/C(=C/C=C(/C#N)C(N)=O)Sc2ncnn2C)cc1`, the GI50 was 18.9 µM and the TGI stood at 51.2 µM.

As for `C1CCC(C(CC2CCCCN2)C2CCCCC2)CC1` (stereo not given), the GI50 is 1.63 µM and the TGI was determined as 3.05 µM.

Regarding `CCCCCCCCCCCCCCCCCCNc1nc(=O)n(C2CC(O)C(COP(=O)(O)OCC(COP(=O)(O)OC3C(CO)OC(n4ccc(N)nc4=O)C3O)OCCCCCCCCCCCCCCCCCC)O2)cc1F` (stereo not given), the TGI was more than 100 µM.

`O=C1C=C(Nc2cccnc2)c2ccccc2C1=O` displayed a TGI of 31.3 µM.

The molecule `Cc1cc(C)nc(NS(=O)(=O)c2ccc(Nc3c4ccccc4nc4c(C(=O)N5CCN(CCO)CC5)ccc(Cl)c34)cc2)n1` registered a TGI of more than 100 µM.

As for `N#Cc1nc(/C=C/c2nc(C#N)c(N)o2)oc1N`, the TGI was more than 10 µM.

Consider `C=C1C(=O)O[C@H]2[C@H]1CC/C(COC(=O)NCc1c[nH]c3ccc(Br)cc13)=C\CC[C@@]1(C)O[C@@H]21`, for which the GI50 was 2.37 µM and the TGI is 7.56 µM.

`CCOC(=O)NC(C(F)(F)F)(C(F)(F)F)P(=O)(OCC(C)C)OCC(C)C` showed a TGI of more than 100 µM.

Consider `CCOC(=O)c1c(SCCCN2CCCCC2)n(-c2ccccc2)c(=S)n(-c2ccccc2)c1=O`, for which the TGI is 33.4 µM.

In turn, `CSc1cc(Cl)c(C)cc1S(=O)(=O)NC(=O)Nc1ccc(Cl)cc1` yielded a TGI of more than 100 µM.

As for `Nc1nc(CCl)nc(N2CCOCC2)n1`, the TGI is more than 100 µM.

For `COc1ccc2c(c1)C(=O)c1c-2c(=O)n(CCCCCCC(=O)NO)c2ccccc12`, the GI50 is 0.777 µM and the TGI was found to be 21.7 µM.

`Cc1ccccc1N1C(N)=C(C#N)C(C#N)(C#N)C1c1ccccc1` (stereo not given): the TGI was 36.6 µM.

`O=C(O)c1c[nH]c2cc(OCc3ccccc3)ccc2c1=O` came in with a TGI of 35.1 µM.

The molecule `NC(=O)CNC(=O)C1CC(O)CN1C(=O)OCc1ccccc1` (stereo not given) (HELM PEPTIDE1{[O=C(OCc1ccccc1)[*:2]].[O=C(C1CC(O)CN1[*:1])[*:2]].G.[am]}$$$$V2.0) showed a TGI of more than 100 µM.

On to `COC(=O)CCC(C)[C@H]1CCC2C3C(C[C@H](OC(C)=O)[C@@]21C)[C@@]1(C)CCC2(C[C@H]1C[C@H]3OC(C)=O)OOC1(CCC(C(C)(C)C)CC1)OO2` (stereo not given in full), for which the TGI was more than 100 µM.

`Cc1ccc2cc3cccc(C(=O)NCCN(C)C)c3nc2c1` showed a TGI of 3.95 µM.
